In PMC4336329 (PLoS ONE, 2015):
Out of some 310,000 compounds screened, about 14,000 (4.5%) showed an effect of 50% or more. Effects have a minus sign here. The list shows a part of the results.

target: human ether-à-go-go-related gene (hERG) potassium channel (human, UniProt Q12809); assay: primary screen, population patch clamp on CHO cells stably expressing hERG
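Also: peak tail current of the secondary pulse compared with the same well before compound.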

human ether-à-go-go-related gene (hERG) potassium channel, sequence (Q12809 whole entry, looked up): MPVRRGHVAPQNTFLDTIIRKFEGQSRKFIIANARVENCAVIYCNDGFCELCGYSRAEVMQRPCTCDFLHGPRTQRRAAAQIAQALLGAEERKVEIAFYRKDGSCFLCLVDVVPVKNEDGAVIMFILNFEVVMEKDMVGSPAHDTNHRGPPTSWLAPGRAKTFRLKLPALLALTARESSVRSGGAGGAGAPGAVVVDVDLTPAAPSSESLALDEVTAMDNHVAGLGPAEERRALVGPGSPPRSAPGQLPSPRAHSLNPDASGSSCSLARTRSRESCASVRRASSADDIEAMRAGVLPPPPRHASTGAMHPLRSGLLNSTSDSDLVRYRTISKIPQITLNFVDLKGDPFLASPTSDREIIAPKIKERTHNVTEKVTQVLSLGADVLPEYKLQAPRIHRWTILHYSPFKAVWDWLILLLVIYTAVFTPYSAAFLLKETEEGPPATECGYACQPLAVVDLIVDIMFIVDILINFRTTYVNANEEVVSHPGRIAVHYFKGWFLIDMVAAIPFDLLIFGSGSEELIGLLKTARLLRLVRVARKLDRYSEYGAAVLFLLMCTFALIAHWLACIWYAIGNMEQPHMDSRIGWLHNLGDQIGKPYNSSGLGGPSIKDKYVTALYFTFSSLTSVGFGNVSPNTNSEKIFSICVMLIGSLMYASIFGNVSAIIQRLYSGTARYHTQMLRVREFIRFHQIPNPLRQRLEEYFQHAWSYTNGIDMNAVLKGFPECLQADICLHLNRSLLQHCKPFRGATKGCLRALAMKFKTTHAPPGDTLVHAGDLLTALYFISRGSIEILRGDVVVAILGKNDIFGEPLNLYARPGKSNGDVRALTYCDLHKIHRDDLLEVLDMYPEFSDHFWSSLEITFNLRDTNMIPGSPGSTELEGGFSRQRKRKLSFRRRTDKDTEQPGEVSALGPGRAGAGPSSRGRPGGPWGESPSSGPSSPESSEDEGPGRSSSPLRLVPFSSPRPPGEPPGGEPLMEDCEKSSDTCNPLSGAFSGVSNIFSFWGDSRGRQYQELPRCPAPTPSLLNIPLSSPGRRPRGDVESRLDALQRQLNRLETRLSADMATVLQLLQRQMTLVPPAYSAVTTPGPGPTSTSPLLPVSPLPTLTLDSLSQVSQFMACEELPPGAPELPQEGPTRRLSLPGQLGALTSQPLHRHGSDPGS

Row | SMILES | hERG current change (%, negative = inhibition) at 10uM [%]
1 | COc1ccc(/C=N/NC(=O)CSc2ccccn2)cc1OC | 2.42
2 | Cc1cc(NC(=O)C2COc3ccccc3O2)no1 (centres unmarked) | -0.48
3 | Cc1ccc(S(=O)(=O)N2CCN(C(=O)COc3ccc(NC(=O)c4ccco4)cc3)CC2)cc1 | 8.3
4 | Cc1ccc(C)c(/C(O)=C2\C(=O)C(=O)N(CCCn3ccnc3)C2c2cccnc2)c1 (centres unmarked) | 3.99
5 | O=C(CCNS(=O)(=O)c1cccs1)Nc1nccs1 | 14.5
6 | CC(=O)Nc1ccccc1-c1nnn(CC(=O)Nc2ccc3c(c2)OCCO3)n1 | 13.4
7 | O=C(Cc1ccccc1)NC1CCN(C(=O)c2ccc([N+](=O)[O-])cc2)CC1 | -47.7
8 | COC(=O)c1cc(C)sc1NC(=O)CN1CCN(C(=O)c2ccco2)CC1 | -30
9 | Cc1onc(-c2c(Cl)cccc2Cl)c1C(=O)NCc1ccccn1 | 2.34
10 | CCOC(=O)N1CCN(c2cc(C)c([N+](=O)[O-])cc2F)CC1 | -8.16
11 | Cn1nccc1C(=O)N1CCCC(N2CCN(c3cccc(C(F)(F)F)c3)CC2)C1 (centres unmarked) | -20.3
12 | CCCN1CCN(CCCNC(=O)c2cc3c(s2)-c2c(C)cccc2OC3)CC1 | -85.2
13 | O=C(COC(=O)c1ccc([N+](=O)[O-])cc1)Nc1ccc(Cl)cn1 | -7.1
14 | CCCCNC(=O)NS(=O)(=O)c1cnccc1Sc1ccc(Cl)cc1 | 12.1
15 | N#Cc1c(-c2ccccc2)nc(SCc2ccc([N+](=O)[O-])cc2)[nH]c1=O | 5.07
16 | CCOC(=O)Cn1c(CN(Cc2ccccc2)Cc2ccccc2)nc2c1c(=O)[nH]c(=O)n2C | -8.22
17 | Cc1nnc(SCC(=O)N2c3ccccc3CC2C)s1 (centres unmarked) | -54.2
18 | O=C(c1ccco1)N1CCCC(c2nc3c(nnn3Cc3cccc(Cl)c3)c(=O)[nH]2)C1 (centres unmarked) | -54.5
19 | O=C(NCCOc1ccccc1)c1ccccc1NC(=O)C1CCCO1 (centres unmarked) | 3.82
20 | CC(=O)c1ccc(C(=O)NC2CC(C)(C)Cc3c2cnn3-c2ccccc2)cc1 (centres unmarked) | -21.8
21 | COc1cc2ncc(C(=O)c3ccccc3)c(N3CCN(Cc4ccccc4)CC3)c2cc1OC | -12.9
22 | COc1ccccc1CN(C)CC(=O)Nc1ccccc1-c1ccccc1 | 17.4
23 | CCOc1c(O)ccc(/C=C2\SC(=S)NC2=O)c1[N+](=O)[O-] | 15
